# Data from the supplement of paper PMC12645437, “Orthogonal IMiD-Degron Pairs Induce Selective Protein Degradation in Cells” (ACS Chemical Biology, 2025).
# The list shows a part of the results.
# Target: no compound (DMSO)
# Assay: log2 fold change of degron read counts, EGFP-low vs EGFP+ sorted cells; higher = lower degron-EGFP level without compound (poor expression or instability)
# Settings: compound: DMSO control; 18 h
# 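Further: jurkat cells carrying a lentiviral library of mutant zinc finger degrons fused to EGFP plus mCherry, mCherry+ cells FACS sorted, degron abundance counted by next-generation sequencing.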
row,Sequence,log2 fold change of degron read counts
1,FCCNICGAIFTQKGNLLRHIKL,0.519
2,FFCPICGAQFTQKGNLLRHIKL,0.271
3,FHCPICGAEFTQKGNLLRHIKL,-0.955
4,FYCNQCGRWFTQKGNLLRHIKL,1.25
5,FTCNVCGAYFTQKGNLLRHIKL,-0.168
6,FWCPVCGAEFTQKGNLLRHIKL,-0.485
7,FGCSVCGHAFTQKGNLLRHIKL,0.617
8,FKCNQCGREFTQKGNLLRHIKL,-1.86
9,FFCPICGHLFTQKGNLLRHIKL,0.698
10,FFCSVCGHGFTQKGNLLRHIKL,-0.123
11,FSCEICGRSFTQKGNLLRHIKL,-1.21
12,FCCPICGANFTQKGNLLRHIKL,-0.0675
13,FSCEICGHTFTQKGNLLRHIKL,-1.74
14,FQCNVCGAPFTQKGNLLRHIKL,-0.273
15,LVCEICGFTCTQKGNLLRHIKL,-0.764
16,FECEQCGAGFTQKGNLLRHIKL,-0.884

row,Sequence,log2 fold change of degron read counts
1,FICNQCGHSFTQKGNLLRHIKL,-0.591
2,FICPICGAGFTQKGNLLRHIKL,-0.334
3,FNCNQCGAAFTQKGNLLRHIKL,-1.09
4,LKCNQCGFRCTQKGNLLRHIKL,0.654
5,FHCPQCGAAFTQKGNLLRHIKL,-0.59
6,FNCNICGAGFTQKGNLLRHIKL,-0.743
7,FACPICGHCFTQKGNLLRHIKL,-0.321
8,FTCDQCGATFTQKGNLLRHIKL,-1.85
9,FLCDICGAHFTQKGNLLRHIKL,-1.47
10,FFCDICGAPFTQKGNLLRHIKL,-0.224
11,FYCEQCGADFTQKGNLLRHIKL,-1.72
12,FRCEICGAHFTQKGNLLRHIKL,-0.32
13,FACDQCGARFTQKGNLLRHIKL,-1.18
14,FTCNVCGATFTQKGNLLRHIKL,-1.01
15,FECPICGAIFTQKGNLLRHIKL,-0.373
16,FVCDQCGADFTQKGNLLRHIKL,-2.81
